Experimental data as given in the supplement of paper PMC9151546.
Single values are uncertain, as repeats are few or missing.

Columns and labels:
CHO-K1 [1] = test: relative survival (nuclei to bead ratio vs DMSO control) (% of vehicle control); higher = more surviving cells
CHO-K1 [2] = test: micronucleus frequency (% of nucleated events); higher = more micronuclei (genotoxic)
CHO-K1 [3] = test: hypodiploid nuclei frequency (% of nucleated events); higher = more hypodiploid events (aneugenic)
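For hypodiploid nuclei frequency (% of nucleated events) in this document: hypodiploid nuclei gated on a flow cytometer with 488 nm excitation after SYTOX Green staining, cultures at 37 °C, positive controls vinblastine without S9 and cyclophosphamide with S9.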
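For micronucleus frequency (% of nucleated events) in this document: cells lysed with nuclei stained by SYTOX Green, then micronucleus-gated events counted against nucleated events by flow cytometry with 488 nm excitation.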
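For relative survival (nuclei to bead ratio vs DMSO control) in this document: Lysed-cell nuclei stained with SYTOX Green and counted against counting beads by flow cytometry at 488 nm excitation, with vinblastine (no S9) and cyclophosphamide (plus S9) as positive controls.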

CCCCN(CCCC)N=O [N-Nitrosodibutylamine]
Settings | hypodiploid nuclei frequency, CHO-K1 [3] [%] | micronucleus frequency, CHO-K1 [2] [%] | relative survival, CHO-K1 [1]
concentration: 4.5 (µM), S9 metabolic activation: with S9, exposure time: 3-4 hours | 0.38 | 1 | 119
concentration: 4.5 (µM), S9 metabolic activation: without S9, exposure time: 24 hours | 1.12 | 1.02 | 81.5
concentration: 5.63 (µM), S9 metabolic activation: with S9, exposure time: 3-4 hours | 0.36 | 1.96 | 117
concentration: 5.63 (µM), S9 metabolic activation: without S9, exposure time: 24 hours | 1.58 | 1.76 | 72.7
concentration: 7.04 (µM), S9 metabolic activation: with S9, exposure time: 3-4 hours | 0.26 | 1.24 | 103
concentration: 7.04 (µM), S9 metabolic activation: without S9, exposure time: 24 hours | 1.02 | 1.58 | 75.1
concentration: 8.8 (µM), S9 metabolic activation: with S9, exposure time: 3-4 hours | 0.36 | 1.5 | 105
concentration: 8.8 (µM), S9 metabolic activation: without S9, exposure time: 24 hours | 0.98 | 2.04 | 75.8
concentration: 11 (µM), S9 metabolic activation: with S9, exposure time: 3-4 hours | 0.26 | 1.12 | 90.2
concentration: 11 (µM), S9 metabolic activation: without S9, exposure time: 24 hours | 0.86 | 2.4 | 86.2
concentration: 13.7 (µM), S9 metabolic activation: with S9, exposure time: 3-4 hours | 0.3 | 1.28 | 94.1
concentration: 13.7 (µM), S9 metabolic activation: without S9, exposure time: 24 hours | 0.7 | 1.58 | 78.4
concentration: 17.2 (µM), S9 metabolic activation: with S9, exposure time: 3-4 hours | 0.24 | 1.16 | 97
concentration: 17.2 (µM), S9 metabolic activation: without S9, exposure time: 24 hours | 0.98 | 1.92 | 79
concentration: 21.5 (µM), S9 metabolic activation: with S9, exposure time: 3-4 hours | 0.24 | 2.36 | 93.3
concentration: 21.5 (µM), S9 metabolic activation: without S9, exposure time: 24 hours | 0.66 | 1.84 | 75.6
concentration: 26.8 (µM), S9 metabolic activation: with S9, exposure time: 3-4 hours | 0.26 | 1.06 | 124
concentration: 26.8 (µM), S9 metabolic activation: without S9, exposure time: 24 hours | 0.6 | 1.06 | 96.8
concentration: 33.6 (µM), S9 metabolic activation: with S9, exposure time: 3-4 hours | 0.34 | 1.56 | 112
concentration: 33.6 (µM), S9 metabolic activation: without S9, exposure time: 24 hours | 5.5 | 1.12 | 81.5
concentration: 41.9 (µM), S9 metabolic activation: with S9, exposure time: 3-4 hours | 0.26 | 1.54 | 146
concentration: 41.9 (µM), S9 metabolic activation: without S9, exposure time: 24 hours | 1.1 | 1.1 | 88.8
concentration: 52.4 (µM), S9 metabolic activation: with S9, exposure time: 3-4 hours | 0.38 | 2 | 120
concentration: 52.4 (µM), S9 metabolic activation: without S9, exposure time: 24 hours | 0.84 | 0.94 | 88.8
concentration: 65.5 (µM), S9 metabolic activation: with S9, exposure time: 3-4 hours | 0.32 | 1.62 | 127
concentration: 65.5 (µM), S9 metabolic activation: without S9, exposure time: 24 hours | 1.18 | 1.68 | 97.2
concentration: 81.9 (µM), S9 metabolic activation: with S9, exposure time: 3-4 hours | 0.2 | 1.78 | 120
concentration: 81.9 (µM), S9 metabolic activation: without S9, exposure time: 24 hours | 1.06 | 1.94 | 80.9
concentration: 102 (µM), S9 metabolic activation: with S9, exposure time: 3-4 hours | 0.34 | 2.06 | 105
concentration: 102 (µM), S9 metabolic activation: without S9, exposure time: 24 hours | 1.58 | 2.28 | 77.9
concentration: 128 (µM), S9 metabolic activation: with S9, exposure time: 3-4 hours | 0.32 | 2.22 | 96.6
concentration: 128 (µM), S9 metabolic activation: without S9, exposure time: 24 hours | 1.4 | 1.84 | 84.2
concentration: 160 (µM), S9 metabolic activation: with S9, exposure time: 3-4 hours | 0.3 | 2.16 | 108
concentration: 160 (µM), S9 metabolic activation: without S9, exposure time: 24 hours | 1.2 | 1.9 | 83.3
concentration: 200 (µM), S9 metabolic activation: with S9, exposure time: 3-4 hours | 0.42 | 3.14 | 108
concentration: 200 (µM), S9 metabolic activation: without S9, exposure time: 24 hours | 1.78 | 2.52 | 77.1
